# According to the supplement of paper PMC3334620:
# In all, about 33,000 sequences were measured (“E-score (-0.5 to 0.5)”: median about -0.016, highest 2% from about 0.32 on). This is one part of the list.
# Molecular target: T1, Stp1 (UniProt B3LFK1)
# T1 sequence: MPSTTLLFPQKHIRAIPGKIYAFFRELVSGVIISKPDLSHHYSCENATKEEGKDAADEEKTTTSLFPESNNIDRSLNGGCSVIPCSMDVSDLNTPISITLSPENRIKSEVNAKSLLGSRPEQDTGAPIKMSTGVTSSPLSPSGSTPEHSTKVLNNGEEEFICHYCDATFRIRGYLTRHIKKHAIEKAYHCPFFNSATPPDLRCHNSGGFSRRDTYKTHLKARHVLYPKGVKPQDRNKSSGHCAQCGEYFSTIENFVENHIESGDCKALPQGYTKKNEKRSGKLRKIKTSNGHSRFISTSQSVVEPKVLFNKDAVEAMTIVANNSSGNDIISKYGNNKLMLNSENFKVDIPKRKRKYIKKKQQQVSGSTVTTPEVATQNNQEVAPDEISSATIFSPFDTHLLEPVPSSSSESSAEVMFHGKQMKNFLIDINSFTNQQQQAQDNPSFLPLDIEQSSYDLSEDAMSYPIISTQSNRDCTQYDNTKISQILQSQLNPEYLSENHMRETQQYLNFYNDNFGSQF
# Test: PBM E-score (8-mer binding enrichment) (E-score (-0.5 to 0.5)); higher = stronger / more preferred TF binding; most listed sequences are background and not binding sites
# Conditions: protein concentration: 200 nM; construct: GST-full length
# How it was run: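 Bound GST-tagged yeast transcription factors, applied at about 100-200 nM to double-stranded universal all-10-mer Agilent arrays, were detected with fluorescent anti-GST. Scans were normalised with masliner. A modified Wilcoxon-Mann-Whitney statistic, the E-score, was assigned to each ungapped eight-base word pooled with its reverse complement by the Universal PBM Analysis Suite.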
row,Sequence,PBM E-score
1,AATTAGAT,0.104
2,AAGGTTGG,-0.0584
3,GATTGAGA,0.133
4,GTATTGGA,-0.067
5,AAGCTACG,0.0193
6,CTTAGTCA,-0.144
7,CCACTCCG,-0.115
8,CCTAAGAA,-0.057
9,GTCCCCCA,-0.318
10,ACCGGATC,-0.177
11,GGACAAGA,-0.0443
12,ATATTCAA,0.253
13,CCACGTAA,0.111
14,GCAATGCC,0.261
15,CTACACAC,0.0156
16,CCCGTAGC,-0.24
17,AATAAGCG,0.0513
18,GACGGGGC,0.143
19,CAACGTTA,0.0372
20,AATTCACA,0.104
21,CCTAGGCG,-0.0358
22,TTACTAAA,0.246
23,GTATTCCA,-0.0347
24,CGAAGTGC,0.245
25,ATACTATG,0.197

row,Sequence,PBM E-score
1,ACATGCTG,-0.0883
2,ATTACTAA,0.199
3,GGGGGCCA,-0.303
4,ACCCATTC,-0.0381
5,CGTGCAGC,0.184
6,ATAATGGA,0.0869
7,AATAAAAC,0.192
8,GGCAAGTA,0.11
9,GTCAGAAA,-0.00292
10,ACACAACC,0.132
11,CATGATTC,-0.215
12,CTAAGTTC,-0.112
13,AACATATA,0.156
14,AGGGCTGG,-0.176
15,CGGGGGGA,-0.386
16,GACCCGTC,-0.249
17,AGAGTTCA,-0.282
18,CATTTGGA,0.115
19,CAAGCAAG,-0.0234
20,AATGTTAA,0.0126
21,ACTGCGAT,-0.113
22,AGACCGCA,-0.132
23,CACCGACC,-0.127
24,AATGTCTA,0.0557
25,TTGCAAAA,0.128

row,Sequence,PBM E-score
1,GGAGATCC,-0.143
2,GCTTCCCC,-0.261
3,ATCAACCC,-0.0253
4,AGGCGCGA,0.392
5,TCAAGGGA,0.0279
6,ATTACCGC,0.13
7,GTCACTAA,0.055
8,CCTGGCAA,-0.168
9,GGCCTCGA,-0.206
10,AGCTCCAA,-0.0391
11,CTCGGAGC,-0.0174
12,AACCTACT,-0.156
13,CAAAAAGA,-0.0676
14,CGTTAGGC,0.181
15,CTACGACA,0.0518
16,CCCGCCAG,-0.164
17,ACCCAGAG,-0.146
18,CATTTCCG,0.0702
19,ACCCCACA,-0.171
20,AAGGGTGC,-0.016
21,TAGTCTCA,-0.026
22,CGTGCTAG,-0.209
23,GAGGCGTA,0.278
24,AACTATAT,0.14
25,AGTAGCTG,-0.345

row,Sequence,PBM E-score
1,GCGATTAA,0.219
2,CAGTCCCG,-0.23
3,CGTGTCAA,0.0772
4,GAACTAAA,0.172
5,AGCTTGAA,-0.128
6,TCAGACCA,-0.188
7,AAGATTTC,-0.00965
8,ACCATTTG,0.0694
9,ATCATCTG,0.028
10,CAAGTTAC,-0.0183
11,GGAGCGCA,-0.232
12,CCTTTCAG,-0.0336
13,CCTTATGA,0.11
14,ACTTCTCA,-0.162
15,GACAGTGC,-0.00443
16,CGTGAGCA,-0.00304
17,CAATACCG,-0.127
18,CGAGGAAG,-0.158
19,GAAGGATC,-0.204
20,ACCACGTA,-0.0141
21,AGTGCGTA,-0.129
22,CGCGACAC,0.0465
23,GGACAGAC,-0.062
24,ATAGGCGG,0.114
25,GTTTGGAA,0.0964

row,Sequence,PBM E-score
1,CGCTTCCA,0.0266
2,ATTTTACC,0.19
3,AAATGCGG,0.242
4,CACCACCA,0.00098
5,CCTTAACG,0.0269
6,ACATGCGT,-0.224
7,CGCTTACC,0.0966
8,GCCACATA,0.217
9,ACAATGTG,0.0862
10,GTTTGAAA,0.153
11,AAAATGAA,0.0576
12,CTTTGCGC,0.202
13,CATTTCGC,0.0364
14,ATCAAGCG,0.159
15,GATGTGTA,-0.0694
16,CCATTGGA,-0.154
17,CGACGGAC,0.185
18,CCGACGGC,0.124
19,CGTGATGC,0.0689
20,CGGGATGC,-0.122
21,GTTACTCA,0.191
22,CTTGCGCA,0.223
23,AGATCTTA,0.00491
24,GCGCATTA,0.0169
25,GTTTGTGA,0.0176

row,Sequence,PBM E-score
1,AGACATGG,-0.0378
2,CGTCATGC,0.117
3,ATCAATGG,-0.0372
4,AACTGAGC,-0.0352
5,CCGATAGG,-0.171
6,AGACGTGA,-0.0783
7,GCAACGAA,0.163
8,ATCTAAAC,0.0888
9,TTCGCAAA,0.177
10,AACCCCTG,-0.38
11,AAGGTCTC,-0.0862
12,AGAATATC,0.0464
13,ACGAACGA,0.0181
14,ACTGCCAA,-0.0965
15,AGTTGATC,-0.0149
16,AGGAGAAT,-0.17
17,AGTTCATG,0.0464
18,CAATCAGC,-0.136
19,AACAGGTT,-0.237
20,ATGACGTC,-0.109
21,AATTGATG,0.229
22,AATTGCAA,0.118
23,CCCAGCGC,-0.0526
24,CATGCGCC,0.298
25,AGCATACA,0.125

row,Sequence,PBM E-score
1,GTTTCGGA,0.0805
2,GGTAGCAC,-0.208
3,AGTAGCTA,-0.16
4,CTATCCAG,-0.0455
5,GAATGCGA,0.0234
6,CCTCCCAG,-0.26
7,CACAACGC,0.115
8,AAGTAATT,0.076
9,AGGCCGTG,0.307
10,ATTATTTC,0.127
11,GACGGACA,0.08
12,GGGATCAA,-0.182
13,AGCCTTAT,0.0743
14,CGGCCGAA,0.171
15,GAGAGAGC,-0.0408
16,CGGTGGAG,-0.288
17,CTCAAGCC,-0.193
18,ACGACTGA,-0.0264
19,CTATAGTA,0.046
20,AGTAGGCG,0.254
21,CAACTCGA,-0.045
22,TGAAACCA,0.0636
